Measured values reported in PMC6919601, “Identification of Plasmodium dipeptidyl aminopeptidase allosteric inhibitors by high throughput screening” (PLoS ONE, 2019).
“And” between values parts separate entries of the source, which are not always exact repeats. Identical values can stand only once. The campaign covered roughly 110,000 compounds. About 230 (0.21%) showed an effect of 50% or more. This is one part of the list.

target: DPAP1 (Plasmodium falciparum, UniProt Q8IIJ9); assay: primary screen, percent inhibition; read by cleavage of a fluorogenic dipeptide substrate; higher = more effect of the substance; design: species or system P. falciparum D10 trophozoite lysates; single well
Sequence (Q8IIJ9 whole entry, looked up): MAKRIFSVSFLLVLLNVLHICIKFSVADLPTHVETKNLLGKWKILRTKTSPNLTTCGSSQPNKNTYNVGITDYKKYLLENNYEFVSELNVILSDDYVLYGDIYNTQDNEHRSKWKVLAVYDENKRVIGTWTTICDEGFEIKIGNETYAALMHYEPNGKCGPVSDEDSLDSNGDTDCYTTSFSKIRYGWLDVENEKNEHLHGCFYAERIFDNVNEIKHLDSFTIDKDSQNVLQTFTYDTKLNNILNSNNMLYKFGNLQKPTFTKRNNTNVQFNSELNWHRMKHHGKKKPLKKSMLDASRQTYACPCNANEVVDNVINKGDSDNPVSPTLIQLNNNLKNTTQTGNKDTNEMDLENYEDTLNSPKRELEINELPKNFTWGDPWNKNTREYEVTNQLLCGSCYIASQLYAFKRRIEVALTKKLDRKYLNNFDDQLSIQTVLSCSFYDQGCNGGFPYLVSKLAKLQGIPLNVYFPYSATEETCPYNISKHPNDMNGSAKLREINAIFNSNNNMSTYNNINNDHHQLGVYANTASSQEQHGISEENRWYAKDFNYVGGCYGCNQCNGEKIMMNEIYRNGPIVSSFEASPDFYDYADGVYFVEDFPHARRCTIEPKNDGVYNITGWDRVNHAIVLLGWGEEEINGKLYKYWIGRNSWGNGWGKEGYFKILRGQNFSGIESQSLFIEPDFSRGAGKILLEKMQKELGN
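Also: 30 min substrate incubation versus DMSO and 10 µM JCP410 controls.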

| Compound | % Inhibition @ 10 uM |
| --- | --- |
| COc1cccc(OC)c1C(=O)O/N=C(\N)c1ccncc1 | 1.96% |
| O=C(CN1CCCC1)c1ccc(Cl)cc1 | 3.05% |
| Cc1cc(C)nc(/N=C(\NCc2ccccc2)NC(=O)Nc2ccccc2)n1 | -2.32% |
| CCCN1CCN(C(=O)c2ccc(-n3ccc4ccccc43)s2)CC1 | -4.71% |
| CS(=O)(=O)CCC(C(=O)NC1CCN(Cc2ccccc2)CC1)N1Cc2ccccc2C1=O (centres unmarked) | 5.32% |
| O=S(=O)(NCC(c1cccnc1)N1CCOCC1)c1cc(F)ccc1F (centres unmarked) | -3.51% |
| C=CCNC(=O)NC12CC3CC(CC(C3)C1)C2 | 14.8% |
| Brc1ccc(OCCCCCCN2CCNCC2)cc1 | -15.4% |
| Cc1nc2nc(NC(=O)c3ccccc3F)nn2c(O)c1Cc1ccccc1 | 2.05% |
| COc1cccc2c1ncc1c(=O)n3cccc(O)c3nc12 | -1.85% |
| Cc1nn(-c2ccccc2C(C)C)c2c1C(=O)CC(C)(C)C2 | 3.81% |
| CC1CN(c2c(Cl)cccc2[N+](=O)[O-])CCN1 (centres unmarked) | -8.22% |
| Cc1ccc(COC(=O)N[C@@H](CC(C)C)C(=O)NCC#N)cc1 | -4.93% |
| Cn1c(=O)c2c(nc(N3CCCC3)n2C)n(C)c1=O | 0.51% |
| O=c1cccc2n1C[C@H]1C[C@@H]2CN(CCCc2ccccc2)C1 | -1.85% |
| COc1ccc(C2Nc3ccc4ccccc4c3C3=C2C(=O)CC(C)C3)cc1 (centres unmarked) | 5.64% |
| Cc1ccccc1-c1nnn(Cc2ccc(-c3nn[nH]n3)cc2)n1 | 3.66% |
| Cc1cc(C)n(C(C)CC(=O)NCc2ccccc2Cl)n1 (centres unmarked) | -3.98% |
| COc1ccc(C(O)(C(C)C)C(CN2CCOCC2)c2ccc(Cl)cc2)cc1 (centres unmarked) | 0.00706% |
| CCCNc1nc2ccccn2c(=O)c1/C=C1\SC(=S)NC1=O | 1.52% |
| Cc1ccc2c(Cl)c(C(=O)N3CCN(c4ccc(Cl)cc4)CC3)sc2c1 | -6.7% |
| Cc1ccc(C(=O)n2nc(-c3cccnc3)nc2N)cc1 | 2.31% |
| N#C/C(=C/c1ccc(Cl)cc1)c1nc(-c2ccc(F)cc2)cs1 | -3.03% |
| O=[N+]([O-])c1ccc(C(O)CNC(=S)Nc2ccccc2)cc1 (centres unmarked) | -6.68% |
| COc1ccccc1C(=O)N/C(=C\c1cn(S(=O)(=O)N(C)C)c2ccccc12)C(=O)NC(C)C | -3.52% |
| CC1CCC(N2CCN(c3ccccc3F)CC2)CC1 (centres unmarked) | -3.17% |

| Compound | % Inhibition @ 10 uM |
| --- | --- |
| COc1cc(C2CC(C(F)(F)F)n3ncc(C(=O)O)c3N2)cc(OC)c1OC (centres unmarked) | 0.231% |
| Cc1cc(C)c2nc(N3CCCC(C(=O)N4CCN(c5ccccn5)CC4)C3)sc2c1 (centres unmarked) | 0.137% |
| COc1ccc(CCNC(=O)C(C)n2sc3ccccc3c2=O)c(OC)c1 (centres unmarked) | 0.371% |
| O=c1c2ccccc2nc2n1S(=O)(=O)c1ccccc1-2 | -8.76% |
| O=C(O)c1cccc(-n2cccc2/C=C2\NC(=O)N(Cc3ccc(F)cc3)C2=O)c1 | -1.36% |
| CCSc1[nH]nc(N)c1S(=O)(=O)c1ccccc1 | 5.94% |
| Cn1cc(NC(=O)NCC2CCCO2)c2ccccc2c1=O (centres unmarked) | 6.54% |
| Cc1ccc2[nH]c(-c3cc[n+](C)cc3)cc2c1 | 0.658% |
| Cn1c(=O)c2c(nc3n2CC(c2ccc(Cl)cc2)=NN3Cc2ccccc2)n(C)c1=O | -2.62% |
| C=C(C)CNC(=S)Nc1scc(-c2ccsc2)c1C(=O)OCC | 1.57% |
| O=C(NCc1cccc(F)c1)c1ccc2c(c1)sc1nc(-c3ccccc3)cn12 | -5.74% |
| CCOC(=O)c1c(NC(=O)C23CC4CC(CC(C4)C2)C3)sc2c1CCCC2 | -1.36% |
| CC(C)(C)Nc1c(-c2ccncc2)nc2ccc(Br)cn12 | 7.16% |
| CCO/C(O)=C1/C(C)=NC(=S)NC1c1ccc(Cl)cc1 (centres unmarked) | 1.08% |
| O=C(COc1ccc2ccccc2c1)N1CCN(C(=O)c2cccnc2)CC1 | -5.26% |
| O=C(CCc1ccccc1)NC1(C(F)(F)F)NC(=O)N(Cc2ccco2)C1=O (centres unmarked) | 0.032% |
| Fc1ccccc1CCNC1CCN(CCc2ccccc2)CC1 | 3.48% |
| CN1c2ccccc2N(C)C1c1ccccc1O | -3.69% |
| CC(=O)NC1=NC(=O)/C(=C\c2ccccc2OCc2ccc(C(=O)O)cc2)S1 | -5.51% |
| CCCCN(CC)CCCNC(=O)c1cc2ccc3cccnc3c2[nH]1 | 1.75% |
| CN1C=CC=C/C1=C/c1c2ccccc2nc2ccccc12 | -2.45% |
| Cc1ccc(Cl)cc1NC(=O)CCN1C(=O)c2ccccc2C1=O | -1.64% |
| Nc1c(C(=O)Nc2ccccc2F)sc2nc3c(cc12)CCCCC3 | 13.3% |
| CCOC(=O)N1CCN(S(=O)(=O)c2c(C)nc3sccn3c2=O)CC1 | -2.01% |
| Cc1ccc(CS(=O)Cc2ccc(C(=O)N3CCC4(CC3)OCCO4)o2)cc1 (centres unmarked) | -5.43% |
| Cc1cc(C)n(-c2ccc3nncn3n2)n1 | -3.35% |

| Compound | % Inhibition @ 10 uM |
| --- | --- |
| O=C(c1cccc(F)c1)N1CCOCC1 | -5.68% |
| COc1ccc(S(=O)(=O)Nc2nc3ccccc3s2)cc1OC | 2.13% and -6.27% |
| O=C(CSc1cn(CC(=O)N2CCCCC2)c2ccccc12)NCc1ccco1 | -3.13% |
| COC(=O)c1cc2ccsc2n1Cc1nc(-c2ccc(C)cc2)oc1C | -3.17% |
| O=C(Cn1nc(-c2ccccc2)ccc1=O)NCCN1CCc2ccccc2C1 | 0.514% |
| COc1ccccc1-c1nnc(NC(=O)c2ccc(S(=O)(=O)N3CCc4ccccc4C3)cc2)o1 | -0.363% |
| Cc1ccc(S(=O)(=O)NCC(=O)N2CCN(C(c3ccccc3)c3ccccc3)CC2)cc1 | -9.02% |
| Cc1ccccc1OCC(=O)N(Cc1cccc(F)c1)C1CCS(=O)(=O)C1 (centres unmarked) | 5.17% |
| O=C(Nc1nnc(S(=O)(=O)N2CCOCC2)s1)c1ccc(Cl)cc1 | 1.68% |
| O=C(NCc1ccc2[nH]c3c(c2c1)CCCC3)c1ccccc1 | -0.138% |
| Cc1ccc(S(=O)(=O)N(C)c2c(C)ccc(S(=O)(=O)n3nc(C)cc3C)c2C)cc1 | -5.29% |
| COC(=O)c1c(C)oc2cc(Br)c(OCc3ccccc3C)cc12 | -2.15% |
| CC(=O)Nc1ccc(S(=O)(=O)Nc2cc(C)ccn2)cc1 | -1.42% |
| Cc1ccccc1C1C(C#N)=C(N)Oc2cc(N)ccc21 (centres unmarked) | 6.08% |
| COc1ccc(C2Oc3ccc(Br)cc3C3CC(c4ccc(C)o4)=NN32)cc1OC (centres unmarked) | 0.628% |
| CCN1CCN(Cc2ccc(OC)cc2)CC1 | 0.847% |
| CN1C(=O)C(=CNc2ccc(O)cc2)C(=O)N(C)C1=O | -6.69% |
| NC(=O)c1c(NC(=O)Nc2cccc(Cl)c2)sc2c1CCCCC2 | 3.53% |
| CCOC(=O)c1sc(N2C(=O)c3oc4cc(C)c(C)cc4c(=O)c3C2c2ccc(O)cc2)nc1C (centres unmarked) | -3.36% |
| CCOC(=O)N1CCC(NC(=O)Cn2nc(CC)n3c(cc4sccc43)c2=O)CC1 | 1.8% |
| COc1ccc(OC)c(C2C(=O)N(C3CCC(C)CC3)CC(=O)N2Cc2ccc(C)cc2)c1 (centres unmarked) | -0.519% |
| C=CCNC(=O)C1CC=CCC1C(=O)Nc1ccccc1 (centres unmarked) | -3.77% |
| CCN(Cc1ccccc1)C(=O)c1ccc(CNS(=O)(=O)c2ccc(C)cc2)cc1 | -0.971% |
| Cn1nccc1C(=O)Nc1sc2c(c1C#N)CCC2 | 1.57% |
| CCOc1ccccc1CNc1ncnc2c1nc1n2CCCCC1 | -6.91% |
| NC(=O)CSc1nc2nccnc2c(=O)n1Cc1ccccc1 | -0.0652% |

| Compound | % Inhibition @ 10 uM |
| --- | --- |
| O=C(CCCC(=O)NCc1ccco1)NCc1ccoc1 | 3.34% |
| CC(C)CC(=O)N1CCN(C2CCC(C)CC2)CC1 (centres unmarked) | -0.274% |
| CC(=O)N1CCN(c2ncnc3[nH]cnc23)CC1 | -1.47% |
| CC(C)Cc1ccc(C(C)C2=NCCN2)cc1 (centres unmarked) | -2.99% |
| O=C(Nc1ccc(N2CCOCC2)cc1)c1ccccc1F | -2.02% |
| CCN1CCN(CC(O)COc2ccc(C(C)(C)C)cc2)CC1 (centres unmarked) | -3.12% |
| Cc1cc(C(=O)N2CCN(C(=O)c3ccco3)CC2)c2c(C)nn(-c3ccccc3Cl)c2n1 | 3.75% |
| CN(C)CCN(Cc1ccco1)C(=O)c1cc2c(Cl)nc3ccccc3c2s1 | 0.809% |
| COc1ccc(OC)c(C(=O)c2ccccn2)c1 | 2.48% |
| CC1=C(c2ccc(C(C)C)cc2)S(=O)(=O)N=C1N1CCN(C(=O)c2ccco2)CC1 | -1.08% |
| Cc1noc2c1C(c1cc(Br)ccc1F)C(C#N)=C(N)N2 (centres unmarked) | -0.988% |
| O=C(O)CNC(=S)N(CCCN1CCOCC1)Cc1cccs1 | 3.04% |
| COc1ccc2c(CNC3CCCC(C)C3C)c(C(=O)O)n(Cc3ccccc3F)c2c1 (centres unmarked) | 1.17% |
| COc1cc(OC)cc(C(=O)Nc2nc3ccccc3s2)c1 | -8.02% |
| CCN(CCO)Cc1csc2ccccc12 | -2.65% |
| COc1ccc2c(=O)/c(=C\c3ccc(Br)cc3)oc3cccc1c32 | 2.17% |
| O=C(C1CCN(c2nnc(N3CCCC3=O)s2)CC1)N1CCC2(CC1)OCCO2 | -2.85% |
| CCC(C)c1ccc(NC(=O)C2C3C=CC(C3)C2C(=O)O)cc1 (centres unmarked) | -1.88% |
| COc1cccc(OC)c1C(=O)Nc1cccc(Cl)c1 | 1.55% |
| CCOC(=O)c1c(C)n(C)c2ccc(OCC(O)CNCCO)cc12 (centres unmarked) | 2.1% |
| O=C(CSc1ccc2ccccc2n1)NCc1ccc2c(c1)OCO2 | -7.45% |
| Fc1ccc(CNc2nc3ccc(Cl)cc3s2)cc1 | -1.24% |
| CCOc1ccc(-c2nonc2NC(=O)C(c2ccccc2)c2ccccc2)cc1 | 5.39% |
